Experimental data reported in article PMC4336329 (PLoS ONE, 2015).
The campaign covered roughly 310,000 compounds. About 2,200 (0.71%) showed an effect of 50% or more. The effect is printed as a negative number. The list shows a part of the results.

Molecular target: human ether-à-go-go-related gene (hERG) potassium channel (human, UniProt Q12809)
Experiment: primary screen, population patch clamp on CHO cells stably expressing hERG

Sequence of human ether-à-go-go-related gene (hERG) potassium channel (Q12809 whole entry, looked up): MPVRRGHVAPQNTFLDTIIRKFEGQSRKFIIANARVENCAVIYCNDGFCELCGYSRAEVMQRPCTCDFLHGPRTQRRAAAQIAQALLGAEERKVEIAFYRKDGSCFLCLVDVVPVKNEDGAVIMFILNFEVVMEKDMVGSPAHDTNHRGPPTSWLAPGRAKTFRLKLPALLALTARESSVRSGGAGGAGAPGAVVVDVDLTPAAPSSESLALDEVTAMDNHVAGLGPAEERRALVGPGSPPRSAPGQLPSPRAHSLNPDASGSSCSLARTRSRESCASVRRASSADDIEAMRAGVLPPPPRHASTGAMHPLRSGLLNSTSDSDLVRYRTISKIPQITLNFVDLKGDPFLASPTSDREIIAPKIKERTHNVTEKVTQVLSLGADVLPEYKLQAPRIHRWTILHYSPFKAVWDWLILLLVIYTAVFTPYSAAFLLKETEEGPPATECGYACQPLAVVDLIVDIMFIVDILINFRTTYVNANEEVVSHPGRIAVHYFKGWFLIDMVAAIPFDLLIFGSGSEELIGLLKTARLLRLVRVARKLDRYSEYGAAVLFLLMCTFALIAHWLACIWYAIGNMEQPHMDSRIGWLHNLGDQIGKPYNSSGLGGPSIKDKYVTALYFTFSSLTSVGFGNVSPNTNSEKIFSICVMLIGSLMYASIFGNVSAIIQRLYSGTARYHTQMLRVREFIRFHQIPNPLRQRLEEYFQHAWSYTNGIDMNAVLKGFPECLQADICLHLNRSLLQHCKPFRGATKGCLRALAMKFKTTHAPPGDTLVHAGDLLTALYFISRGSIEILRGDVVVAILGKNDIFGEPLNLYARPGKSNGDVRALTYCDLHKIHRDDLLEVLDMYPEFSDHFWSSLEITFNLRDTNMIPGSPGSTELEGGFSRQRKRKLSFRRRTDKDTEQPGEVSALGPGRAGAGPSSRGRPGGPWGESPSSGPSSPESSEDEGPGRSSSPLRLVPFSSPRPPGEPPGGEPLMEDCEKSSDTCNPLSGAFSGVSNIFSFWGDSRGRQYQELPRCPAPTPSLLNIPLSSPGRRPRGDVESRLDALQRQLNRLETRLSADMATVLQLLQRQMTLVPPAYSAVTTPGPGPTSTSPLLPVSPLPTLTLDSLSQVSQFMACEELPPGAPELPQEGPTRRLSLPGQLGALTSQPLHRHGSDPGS

SMILES	hERG current change (%, negative = inhibition) at 1uM [%]
CN(C)S(=O)(=O)N(CC(=O)N1CCOCC1)c1ccccc1	4.6
COC(=O)CCCN1C(=O)c2cccc3cccc(c23)C1=O	12.3
CS(=O)(=O)Nc1ccc(C(=O)Nc2ccc3c(c2)OCO3)cc1	7.26
CCOC(=O)c1c(/N=C/C2C(=O)NC(=S)NC2=O)sc2c1CCC2	8.76
COc1cccc(CN(C)C(=O)c2cccc(S(=O)(=O)N3CCN(c4ccc(F)cc4)CC3)c2)c1OC	7.83
C=CCn1c(-c2cc3cccc(OC)c3o2)n[nH]c1=S	10.8
CCOc1ccc(NC(=O)C2CCCN(S(=O)(=O)c3cccc4nsnc34)C2)cc1 (stereo not shown)	6.22
Cc1cc(SCc2cc(=O)[nH]c3ccccc23)nc2ccccc12	17.9
CCOc1ccc(CCNC(=O)C(C)n2nc(C)c3c(C)n(-c4ccccc4)nc3c2=O)cc1 (stereo not shown)	-5.23
O=C(OC1CCN(c2ncc(C(F)(F)F)cc2Cl)CC1)c1ccccc1	5.38
CC(=O)c1ccc(N2CCC(c3cc(-c4ccc(Cl)cc4Cl)n[nH]3)CC2)c([N+](=O)[O-])c1	9
Cc1cccc(C(=O)Nc2cccc(C(=O)Nc3cc(C)ccn3)c2)c1	12.1
C=C(C)CN1C(=O)c2ccccc2C1=O	4.89
COc1ccc(-n2c(N)c(C(=O)NCc3ccco3)c3nc4ccccc4nc32)cc1	10.3
COc1ccc(/C=C/C(=O)O)cc1Cl	13.9
O=C(CNC(=O)C1CCCCC1)NNC(=O)c1ccccc1Br	6.57
Cn1c(-c2sccc2OCc2ccccc2)n[nH]c1=S	6.25
CCOC(=O)N/N=C\c1ccc(C)s1	-0.197
COc1cc(NC(=O)Cn2ccsc2=N)c(C)cc1[N+](=O)[O-].Cl	7.46
NC(=O)C(F)(F)C12OC3C4C5CC(C6C5C3C61)C42 (stereo not shown)	12.7
O=C(O)/C=C/C(=O)Nc1ccc(S(=O)(=O)N2CCCC2)cc1	9.79
CC1CCCC(C)N1C(=O)Nc1cccc(Cl)c1 (stereo not shown)	11

SMILES	hERG current change (%, negative = inhibition) at 1uM [%]
COC(=O)C1CCCN1S(=O)(=O)c1ccc2ccccc2c1 (stereo not shown)	-2.62
CCOC(=O)[C@@H]1[C@H]2COc3ccc(Br)cc3[C@H]2N2C(=O)N(c3ccc(F)cc3)C(=O)[C@]12C	13.1
CCCS(=O)(=O)N1CCN(Cc2ccco2)CC1.O=C(O)C(=O)O	13.8
O=C(NCc1cccs1)C1CC(c2ccc(F)cc2)=NO1 (stereo not shown)	7.19
Cc1cc(NC(=O)CSc2nc(C)c(C)c(=O)[nH]2)no1	14.9
CC(NC(=O)CNC(=O)c1ccco1)c1ccccc1 (stereo not shown)	11.9
Cc1ccc(SCCNC(=O)/C=C/c2ccc(Cl)cc2)cc1	9.31
CCCn1c(SCC(=O)NC2CCCCC2)nnc1C1CC1	8.58
Cc1nn(C(=O)CN2C(=O)c3ccccc3C2=O)c(C)c1Br	6.8
Clc1ccc(-c2cn3cccnc3n2)cc1	15.3
CCOc1cc(/C=N/NC(=O)c2nnn(-c3nonc3N)c2C)ccc1OCc1cccc(F)c1	21.2
CC(C)(C)c1ccc(C(=O)Cn2cnnc2C#N)cc1	6.52
CC(C)(C)C(=O)OCCNc1nc(-c2ccccc2)nc2ccccc12	5.38
CN1c2ccccc2-c2nc3ccccc3n2C1c1ccccn1 (stereo not shown)	9.52
Cc1ccc(NC(=O)N2CCN(C(=O)c3ccco3)CC2)cc1Cl	11.4
NC(=O)Nc1ccc(C(=O)OCC(=O)Nc2ccc([N+](=O)[O-])cc2C(F)(F)F)cc1	5
Nc1nnc(-c2ccc(Cl)cc2)o1	8.73
CCOc1ccccc1N(CC(=O)N1CCc2ccccc2C1)S(C)(=O)=O	17.5
O=c1oc(-c2cccc(S(=O)(=O)N3CCOCC3)c2)nc2ccccc12	6.33
CC(C)(C)CC(=O)N1CCN(Cc2ccc3c(c2)OCO3)CC1	8.86
Cc1cc(C(=O)N2CCCC(Nc3ccc(F)cc3)C2)c(C)o1 (stereo not shown)	11.8
CC1CC(=O)N(CC(=O)Nc2ccc(Br)cc2)c2ccccc2S1(=O)=O (stereo not shown)	7.6

SMILES	hERG current change (%, negative = inhibition) at 1uM [%]
Cc1ccc2c(c1)nnn2C1CCN(S(=O)(=O)c2ccc(C(=O)N3CC(C)CC(C)C3)cc2)CC1 (stereo not shown)	8.68
COC(=O)C1=C(c2cccc(OCc3ccccc3)c2)C[C@@H]2CC[C@H]1N2C(=O)NCCOc1ccccc1	10.7
CCOC(=O)c1ccc2c(c1)nc(C)n2CC	12.6
CSCc1c(C(=O)NC2CCCc3ccccc32)oc2ccccc12 (stereo not shown)	11.9
COc1ccccc1NC(NC(=O)c1ccco1)C(=O)c1ccccc1 (stereo not shown)	2.96
O=C(CSC1c2ccccc2-c2ccccc21)N/N=C/c1ccc(C(=O)O)cc1	11.3
COc1ccc(N2C(=O)C3C(C2=O)C(C(=O)c2ccccc2)N2CCCC32)cc1 (stereo not shown)	-7.02
CCOC(C(=O)OCCC[N+](C)(CC)CC)(c1ccccc1)c1ccccc1.COS(=O)(=O)[O-]	15.8
Nc1cc(N)nc(SCC(=O)Nc2ccc(Br)cc2Cl)n1	11.4
COC(=O)[C@H](Cc1ccccc1)NC(=O)NCC1CCCO1 (stereo partly shown)	12.6
CCOC(=O)Cn1c(=O)c2c(nc3n2CCCCN3c2ccc(C)cc2)n(C)c1=O	1.3
COC(=O)[C@H]1CN(C(=O)c2ccccc2)C(=O)N1	6.04
O=C(Nc1cccc2c1C(=O)NC2=O)c1ccc(S(=O)(=O)N2CCCC2)cc1	8.89
OC(CNc1nc(-c2cccnc2)nc2ccccc12)c1ccccc1 (stereo not shown)	2.49
CCCOC(=O)CSc1nnc(-c2cc(OC)c(OC)c(OC)c2)o1	4.15
C=C(C)CN(CC)C(=O)CSc1nc2ncc(Cl)cc2[nH]1	12
Cc1c(C(=O)Nc2ccc(OC(F)(F)F)cc2)sc2nc3n(c(=O)c12)CCC3	5.34
CCOc1ccc(CC(=O)Nc2sc(Cc3ccccc3)c(C)c2C(N)=O)cc1OCC	-12.2
COc1ccc(CSc2ccc(S(=O)(=O)N3CCCCC3)cn2)cc1F	5.51
Cc1ccc(/C=N/NC(=O)c2cc(-c3ccc(C)o3)[nH]n2)cc1	10.9
CN(C)CCCNc1nc(-c2ccccc2)c2c(c1C#N)CC(C)(C)OC2	-11.3
CCOc1ccc(/C(O)=C2/C(=O)C(=O)N(c3ccccn3)C2c2ccc(Cl)cc2)c(C)c1 (stereo not shown)	13.6

SMILES	hERG current change (%, negative = inhibition) at 1uM [%]
CC(C)CN1C(=O)c2ccc(NC(=O)c3ccco3)cc2C1=O	7.71
COC(=O)NCCOc1nc(N(C)C)nc(N(C)C)n1	18.4
COc1ccc(/C=N/NC(=O)c2cccc([N+](=O)[O-])c2)cc1OC(=O)c1ccc(C)cc1	10.3
COc1cc2ncnc(NCc3cccc(Cl)c3)c2cc1OC	3.07
COc1cccc(CN(C)C(=O)c2cc(S(=O)(=O)N3CCN(c4ccccc4)CC3)ccc2Cl)c1	-3.75
COc1ccc(CCNC(=O)C23CN(Cc4ccccc4)CC2C(c2cccc([N+](=O)[O-])c2)=NO3)cc1 (stereo not shown)	9.54
CC(=O)N1CCCN(C(=O)c2ccc3nc(Cc4cccc(Cl)c4)oc3c2)CC1	17.7
CSCCC(NC(=O)c1cc(CC(C)C)oc1C)C(=O)O (stereo not shown)	8.21
CCOc1ccc(S(=O)(=O)N2CCC(C(=O)NCc3ccncc3)CC2)cc1C	11.3
CC(=O)/C(=C/c1ccccc1)C(=O)Nc1ccccc1C	12.4
CC1CCN(C(=O)CNC(=O)c2ccc(Cl)cc2Cl)CC1	-7.68
COc1cc(OC)cc(C2C(C#N)=C(N)Oc3n[nH]c(-c4cccnc4)c32)c1 (stereo not shown)	13.1
CCOC(=O)c1[nH]c2ccc(OC)cc2c1NC(=O)CN1CCSCC1	3.88
COc1ccc(Cc2nnc(SCC(=O)c3ccc4c(c3)OCO4)o2)cc1	5.92
CCOc1ccc(N2C(=O)Nc3ccccc3C2(O)C(=O)NCc2ccc(F)cc2)cc1 (stereo not shown)	7.42
Cc1[nH]c2ccccc2c1C(=O)CN1CC(C)CC(C)C1 (stereo not shown)	5.19
CCOC(=O)C(O)(C1C(=O)CC(C)(C)CC1=O)C(F)(F)F (stereo not shown)	14.7
O=C(N/N=C/c1ccccc1O)c1cccc(C(F)(F)F)c1	-0.455
CCCCCCCCC(=O)NCCOc1ccccc1	0.192
Cc1nn(-c2ccccc2)c2sc(C(=O)NCCN3CCOCC3)cc12	3.27
Cc1cc(=O)oc2cc(OCCCN3C(=O)c4ccccc4C3=O)ccc12	-0.574
Cc1cc(C)n(-c2ccc(C(=O)Nc3cccc(S(=O)(=O)N4CCCC4)c3)cc2)n1.Cl	18.8
